Assay results from patent US11000038B2, “Pyridone compounds and agricultural and horticultural fungicides containing the same as active ingredients” (priority 2017, dated 2021).

Experiments:
[1] = system: rice blast fungi (Magnaporthe grisea); type: in vivo; settings: for Test A control value class (rice blast): control value=100{1-(n/3)}; for Test A control value: rice blast
[2] = system: tomato late blight fungi (Phytophthora infestans); type: in vivo; settings: for Test F control value class (tomato late blight): control value=100{1-(n/3)}; for Test F control value: tomato late blight
[3] = system: cucumber anthracnose fungi (Colletotrichum orbiculare); test: Test Example H: cucumber anthracnose, spray treatment of cucumber plants; settings: for Test H control value class (cucumber anthracnose): 2.5 ml/pot, cucumber Sagami Hanjiro, 6 to 10 days from inoculation; for Test H control value: cucumber anthracnose, 6 to 10 days after inoculation
[4] = spray treatment of tomato plants

CC(C)Cn1cc(Br)c(=O)c(Cl)c1-c1c(F)cc(F)cc1F [Compound 115]
Test A control value class (rice blast) ([1]; spray treatment of rice plants): H (H shows the control value of more than 50%)
Test F control value class (tomato late blight) [2, 4]: L (L shows the control value of 50% or less)
Test H control value class (cucumber anthracnose) ([3]; 250 ppm spray): H (H shows the control value of more than 50%)

COc1ccc(C)c(-n2cc(C)c(=O)c(C)c2-c2ccccc2)c1 [Compound 435]
Test A control value ([1]; spray treatment): H (H shows the control value of more than 50%)
Test F control value ([2]; spray treatment): L (L shows the control value of 50% or less)
Test H control value ([3]; 250 ppm spray): H (H shows the control value of more than 50%)

CCc1ccc(OCC#N)cc1-n1cc(C)c(=O)c(C)c1-c1c(F)cccc1F [Compound 619]
Test A control value ([1]; spray treatment): H (H shows the control value of more than 50%)
Test F control value ([2]; spray treatment): L (L shows the control value of 50% or less)
Test H control value ([3]; 250 ppm spray): H (H shows the control value of more than 50%)

Cc1c(F)cccc1-n1cc(Br)c(=O)c(Cl)c1-c1ccccc1 [Compound 413]
Test A control value ([1]; spray treatment): L (L shows the control value of 50% or less)
Test F control value ([2]; spray treatment): L (L shows the control value of 50% or less)
Test H control value ([3]; 250 ppm spray): L (L shows the control value of 50% or less)

O=c1c(Br)cn(-c2cccc(Cl)c2)c(-c2c(F)cc(F)cc2F)c1Br [Compound 140]
Test A control value class (rice blast) ([1]; spray treatment of rice plants): H (H shows the control value of more than 50%)
Test F control value class (tomato late blight) [2, 4]: L (L shows the control value of 50% or less)
Test H control value class (cucumber anthracnose) ([3]; 250 ppm spray): L (L shows the control value of 50% or less)

Cc1ccc(F)cc1-n1cc(Cl)c(=O)c(Br)c1-c1c(F)cc(F)cc1F [Compound 179]
Test A control value class (rice blast) ([1]; spray treatment of rice plants): H (H shows the control value of more than 50%)
Test F control value class (tomato late blight) [2, 4]: L (L shows the control value of 50% or less)
Test H control value class (cucumber anthracnose) ([3]; 250 ppm spray): H (H shows the control value of more than 50%)

COc1cc(F)c(-c2c(Br)c(=O)c(Br)cn2-c2ccon2)c(F)c1 [Compound 130]
Test A control value class (rice blast) ([1]; spray treatment of rice plants): H (H shows the control value of more than 50%)
Test F control value class (tomato late blight) [2, 4]: H (H shows the control value of more than 50%)
Test H control value class (cucumber anthracnose) ([3]; 250 ppm spray): H (H shows the control value of more than 50%)

O=c1c(Cl)cn(-c2ccccc2Br)c(-c2c(F)cc(F)cc2F)c1Cl [Compound 45]
Test A control value class (rice blast) ([1]; spray treatment of rice plants): H (H shows the control value of more than 50%)
Test F control value class (tomato late blight) [2, 4]: L (L shows the control value of 50% or less)
Test H control value class (cucumber anthracnose) ([3]; 250 ppm spray): H (H shows the control value of more than 50%)

Cc1ccc(Cl)cc1-n1cc(Cl)c(=O)c(Cl)c1-c1c(F)cc(F)cc1F [Compound 241]
Test A control value ([1]; spray treatment of rice plants): H (H shows the control value of more than 50%)
Test F control value [2, 4]: L (L shows the control value of 50% or less)
Test H control value ([3]; 250 ppm spray (2.5 ml/pot)): H (H shows the control value of more than 50%)

CCc1ccccc1-n1cc(Cl)c(=O)c(Br)c1-c1c(F)cc(F)cc1F [Compound 349]
Test A control value ([1]; spray treatment of rice plants): H (H shows the control value of more than 50%)
Test F control value [2, 4]: L (L shows the control value of 50% or less)
Test H control value ([3]; 250 ppm spray (2.5 ml/pot)): H (H shows the control value of more than 50%)

COc1cc(F)c(-c2c(Br)c(=O)c(Cl)cn2-c2ccccc2)c(F)c1 [Compound 17]
Test A control value class (rice blast) ([1]; spray treatment of rice plants): H (H shows the control value of more than 50%)
Test F control value class (tomato late blight) [2, 4]: L (L shows the control value of 50% or less)
Test H control value class (cucumber anthracnose) ([3]; 250 ppm spray): H (H shows the control value of more than 50%)

O=c1c(Br)cn(-c2ccccc2)c(-c2ccc(F)c(F)c2)c1Cl [Compound 604]
Test A control value ([1]; spray treatment): L (L shows the control value of 50% or less)
Test F control value ([2]; spray treatment): L (L shows the control value of 50% or less)
Test H control value ([3]; 250 ppm spray): L (L shows the control value of 50% or less)

Cc1c(Cl)cccc1-n1cc(Br)c(=O)c(Cl)c1-c1c(F)cc(F)cc1F [Compound 322]
Test A control value ([1]; spray treatment of rice plants): H (H shows the control value of more than 50%)
Test F control value [2, 4]: L (L shows the control value of 50% or less)
Test H control value ([3]; 250 ppm spray (2.5 ml/pot)): H (H shows the control value of more than 50%)

Cc1cccc(C)c1-n1cc(Br)c(=O)c(Cl)c1-c1ccccc1 [Compound 452]
Test A control value ([1]; spray treatment): L (L shows the control value of 50% or less)
Test F control value ([2]; spray treatment): L (L shows the control value of 50% or less)
Test H control value ([3]; 250 ppm spray): H (H shows the control value of more than 50%)

COc1ccc(C)c(-n2cc(Br)c(=O)c(Cl)c2-c2c(F)cccc2F)c1 [Compound 392]
Test A control value ([1]; spray treatment): H (H shows the control value of more than 50%)
Test F control value ([2]; spray treatment): L (L shows the control value of 50% or less)
Test H control value ([3]; 250 ppm spray): H (H shows the control value of more than 50%)

Cc1ccc(-c2c(Br)c(=O)c(Cl)cn2-c2ccccc2C)cc1 [Compound 410]
Test A control value ([1]; spray treatment): L (L shows the control value of 50% or less)
Test F control value ([2]; spray treatment): L (L shows the control value of 50% or less)
Test H control value ([3]; 250 ppm spray): L (L shows the control value of 50% or less)

COc1cc(F)c(-c2c(C)c(=O)c(C)cn2-c2ccccc2)c(F)c1 [Compound 454]
Test A control value ([1]; spray treatment): H (H shows the control value of more than 50%)
Test F control value ([2]; spray treatment): L (L shows the control value of 50% or less)
Test H control value ([3]; 250 ppm spray): H (H shows the control value of more than 50%)

CCc1c(-c2c(F)cc(F)cc2F)n(-c2ccccc2Cl)cc(Br)c1=O [Compound 490]
Test A control value ([1]; spray treatment): H (H shows the control value of more than 50%)
Test F control value ([2]; spray treatment): H (H shows the control value of more than 50%)
Test H control value ([3]; 250 ppm spray): H (H shows the control value of more than 50%)

Cc1cc(Cl)ccc1-n1cc(Cl)c(=O)c(Br)c1-c1c(F)cc(F)cc1F [Compound 331]
Test A control value ([1]; spray treatment of rice plants): H (H shows the control value of more than 50%)
Test F control value [2, 4]: L (L shows the control value of 50% or less)
Test H control value ([3]; 250 ppm spray (2.5 ml/pot)): H (H shows the control value of more than 50%)

CC(=O)Nc1cccc(-n2cc(Cl)c(=O)c(Cl)c2-c2c(F)cc(F)cc2F)c1C [Compound 424]
Test A control value ([1]; spray treatment): H (H shows the control value of more than 50%)
Test F control value ([2]; spray treatment): L (L shows the control value of 50% or less)
Test H control value ([3]; 250 ppm spray): L (L shows the control value of 50% or less)

O=c1c(Br)cn(-c2ccccc2C(F)(F)F)c(-c2c(F)cccc2F)c1Cl [Compound 371]
Test A control value ([1]; spray treatment of rice plants): H (H shows the control value of more than 50%)
Test F control value [2, 4]: L (L shows the control value of 50% or less)
Test H control value ([3]; 250 ppm spray (2.5 ml/pot)): H (H shows the control value of more than 50%)

O=c1c(Br)cn(-c2ccccc2)c(-c2ccccc2Cl)c1Cl [Compound 574]
Test A control value ([1]; spray treatment): H (H shows the control value of more than 50%)
Test F control value ([2]; spray treatment): L (L shows the control value of 50% or less)
Test H control value ([3]; 250 ppm spray): H (H shows the control value of more than 50%)

CC(C)C(C)n1cc(C(F)(F)F)c(=O)c(Cl)c1-c1c(F)cc(F)cc1F (stereo not drawn) [Compound 137]
Test A control value class (rice blast) ([1]; spray treatment of rice plants): L (L shows the control value of 50% or less)
Test F control value class (tomato late blight) [2, 4]: L (L shows the control value of 50% or less)
Test H control value class (cucumber anthracnose) ([3]; 250 ppm spray): L (L shows the control value of 50% or less)

CCCc1ccccc1-n1cc(C)c(=O)c(C)c1-c1c(F)cc(F)cc1F [Compound 445]
Test A control value ([1]; spray treatment): H (H shows the control value of more than 50%)
Test F control value ([2]; spray treatment): L (L shows the control value of 50% or less)
Test H control value ([3]; 250 ppm spray): H (H shows the control value of more than 50%)

O=c1c(Cl)cn(-c2cccc(Br)c2)c(-c2c(F)cc(F)cc2F)c1Br [Compound 119]
Test A control value class (rice blast) ([1]; spray treatment of rice plants): H (H shows the control value of more than 50%)
Test F control value class (tomato late blight) [2, 4]: L (L shows the control value of 50% or less)
Test H control value class (cucumber anthracnose) ([3]; 250 ppm spray): L (L shows the control value of 50% or less)

COCOc1ccc(C)c(-n2cc(Br)c(=O)c(Cl)c2-c2c(F)cc(OC)cc2F)c1 [Compound 286, 5-bromo-3-chloro-2-(2,6-difluoro-4-methoxyphenyl)-1-(5-(methoxymethoxy)-2-methylphenyl)pyridin-4(1H)-one]
Test A control value ([1]; spray treatment of rice plants): H (H shows the control value of more than 50%)
Test F control value [2, 4]: H (H shows the control value of more than 50%)
Test H control value ([3]; 250 ppm spray (2.5 ml/pot)): H (H shows the control value of more than 50%)

COc1cc(F)c(-c2c(Br)c(=O)c(Br)cn2C(C)C(C)C)c(F)c1 (stereo not drawn) [Compound 53]
Test A control value class (rice blast) ([1]; spray treatment of rice plants): H (H shows the control value of more than 50%)
Test F control value class (tomato late blight) [2, 4]: L (L shows the control value of 50% or less)
Test H control value class (cucumber anthracnose) ([3]; 250 ppm spray): H (H shows the control value of more than 50%)

C#CCOc1cc(F)c(-c2c(C)c(=O)c(C)cn2-c2cc(C)ccc2C)c(F)c1 [Compound 406]
Test A control value ([1]; spray treatment): L (L shows the control value of 50% or less)
Test F control value ([2]; spray treatment): H (H shows the control value of more than 50%)
Test H control value ([3]; 250 ppm spray): H (H shows the control value of more than 50%)

Cc1ccc(OCC#N)cc1-n1cc(Br)c(=O)c(Cl)c1-c1c(F)cccc1F [Compound 428]
Test A control value ([1]; spray treatment): H (H shows the control value of more than 50%)
Test F control value ([2]; spray treatment): H (H shows the control value of more than 50%)
Test H control value ([3]; 250 ppm spray): H (H shows the control value of more than 50%)

Cc1cn(-c2ccccc2C(F)(F)F)c(-c2c(F)cc(F)cc2F)c(C)c1=O [Compound 476]
Test A control value ([1]; spray treatment): H (H shows the control value of more than 50%)
Test F control value ([2]; spray treatment): L (L shows the control value of 50% or less)
Test H control value ([3]; 250 ppm spray): H (H shows the control value of more than 50%)

CCc1ccccc1-n1cc(C)c(=O)c(C)c1-c1c(F)cc(OC)cc1F [Compound 338]
Test A control value ([1]; spray treatment of rice plants): H (H shows the control value of more than 50%)
Test F control value [2, 4]: L (L shows the control value of 50% or less)
Test H control value ([3]; 250 ppm spray (2.5 ml/pot)): H (H shows the control value of more than 50%)

Where two headings read alike, the source gives them in different places.
